Measured values from PubChem BioAssay AID2546 (National Center for Advancing Translational Sciences (NCATS), 2010).
Values joined by “and” are separate entries in the source; they are usually repeats but may differ in a detail not shown here. Identical values can stand only once. The whole screen tested about 310,000 compounds, of which about 11,000 (3.5%) were called active. Inconclusive results, whose numbers are uncertain, are shown with a selection of clear calls. The call rests on the fitted dose curve; in most records, active means well fitted inhibition curve with a large enough effect; inconclusive means small, poorly fitted or top-dose-only effect, or effect the other way; inactive means flat fitted curve, though single readings scatter. Potencies of inconclusive entries are doubtful fits and often do not repeat.

experiment: VP16 counterscreen qHTS for inhibitors of ROR gamma transcriptional activity; conditions: Drosophila S2 Gal4-VP16 UAS-luciferase, luminescence, 20 h; series mostly up to 53.6 µM;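 further: Gal4-VP16 expression switched on by copper sulfate through the metallothionein promoter; nearly all actives have a fitted effect of over 50% in size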
Potency means the concentration at half of the fitted maximal effect; tags describe the fitted curve by direction and shape.

| Structure (SMILES) | Potency |
| --- | --- |
| C=CCn1c(O)c(N=NC(=S)Nc2cccc(C)c2)c2ccccc21 | active: 0.447 µM |
| CSc1ccccc1OCc1cc(C(=O)N2CCC(c3ccncc3)CC2)no1 | inconclusive: 22.4 µM [inhibitor, single point] |
| CC1CCN(CC(=O)N2CCCc3c2c(=O)oc2ccc(OCc4ccccc4)cc32)CC1 | inconclusive: 35.5 µM [inhibitor, single point] |
| CCCOc1ccc(Br)cc1CSC(=N)N | active: 12.6 µM |
| O=C(CSc1nc(-c2ccc(Cl)cc2)cs1)Nc1cccc([N+](=O)[O-])c1 | inconclusive: 35.5 µM [inhibitor, single point] |
| COc1ccccc1NC(=O)c1nc(S(=O)(=O)Cc2ccccc2)ncc1Cl | active: 5.01 µM |
| Cc1oc2c(C)c(O)ccc2c(=O)c1-c1cnn(-c2ccccc2)c1 | inconclusive: 25.1 µM [inhibitor, single point] |
| CNc1nc(Oc2ccccc2C(=O)OC)nc(SC)n1 | inconclusive: 12.6 µM [activator, single point] |
| O=C(NC(=S)Nc1ccccc1N1CCCC1)c1ccc([N+](=O)[O-])cc1 | active: 0.112 µM |
| Cc1nc(SCC(=O)NCC(F)(F)F)c2c(-c3cccs3)csc2n1 | inactive |
| CCOc1cc(N2CCOCC2)c(OCC)cc1NC(=O)COc1ccccc1[N+](=O)[O-] | inactive |
| Cc1nc2cc(-c3ccc(Cl)cc3)nn2c(NCCN(C)C)c1C | active: 5.62 µM |
| O=C(N/N=C\c1ccncc1)c1ccccc1O | inconclusive: 35.5 µM [inhibitor, single point] |
| Cc1ccc(NC2=NCC(Cc3ccc(Br)cc3)S2)cc1 (configuration not stated) | inconclusive: 22.4 µM [inhibitor, single point] |
| Cc1cc2n(n1)SC(Nc1cccc3ccccc13)N2 (configuration not stated) | active: 4.47 µM |
| Cc1ccc(-n2nc3cc(C)c(N)cc3n2)cc1 | inconclusive: 10 µM [inhibitor, partial curve] |
| CCOc1ccc(S(=O)(=O)N/N=C\c2ccc3c(c2)OCO3)cc1 | inactive |
| Cc1ccc(SCC(=O)Nc2ccc(-c3nnc(-c4ccco4)o3)cc2)cc1 | inconclusive: 3.98 µM [inhibitor, full curve] |
| O=C(NC(=S)Nc1ccc(F)c(Cl)c1)C1CC1 | active: 7.08 µM |
| Cc1ccc(Cn2c(NC(=O)c3ccco3)nc3ccccc32)cc1 | active: 1.58 µM |
| Cc1ccc(NC(=S)N2CCN(S(=O)(=O)c3ccc(F)cc3)CC2)cc1 | inconclusive: 35.5 µM [inhibitor, single point] |
| Cc1ccc(C(c2nnnn2C2CCCC2)N2CCc3ccccc32)cc1 (configuration not stated) | inconclusive: 4.47 µM [activator, single point] |
| C/C(CC(=O)Nc1ccc(OCc2ccccc2)cc1)=N\NC(=O)C(=O)Nc1ccc(C)c(Cl)c1 | inconclusive: 35.5 µM [inhibitor, single point] |
| O=C(N/N=C/C1CC=CCC1)c1cc2ccccc2cc1O (configuration not stated) | inconclusive: 20 µM [inhibitor, single point] |

| Structure (SMILES) | Potency |
| --- | --- |
| Cc1nn(C)c(Oc2ccc(Cl)cc2)c1C(=O)Nc1ccc(F)cc1F | inactive |
| Cc1cccc(NC(=O)c2ccc3ccccc3n2)c1C | inconclusive: 10 µM [inhibitor, partial curve] |
| COc1cccc(/C=C/C(=O)OCC(=O)Nc2cc(S(=O)(=O)N3CCOCC3)ccc2C)c1 | inactive |
| COc1ccc(C(=O)Nc2ccc(NC(=O)c3ccccc3F)cn2)cc1 | inactive |
| Cc1ccc(-n2ncc3c(NNC(=O)Cc4ccccc4)ncnc32)cc1 | inconclusive: 12.6 µM [inhibitor, partial curve] |
| O=C(NCC1CCCO1)NC12CC3CC(CC(C3)C1)C2 (configuration not stated) | inactive |
| CN(C)c1cc[n+](CC(=O)Nc2c(Cl)cc(Cl)cc2Cl)cc1 | inconclusive: 28.2 µM [inhibitor, single point] |
| C/C(=N\NC(=O)c1cccs1)c1c(O)cc(C)oc1=O | active: 5.01 µM |
| CC(C)=C1C2CCC1C(C(=O)Nc1sc(C)c(-c3ccc(C(C)C)cc3)c1C(N)=O)C2C(=O)O (configuration not stated) | inconclusive: 35.5 µM [inhibitor, single point] |
| O=C(NC(=S)Nc1ccccc1O)c1ccc(Cl)cc1Cl | active: 7.08 µM |
| N#CC1=C(N)SC(N)=C(C#N)C1C1CC=CCC1 (configuration not stated) | inconclusive: 28.2 µM [inhibitor, single point] |
| Cc1cc(C)c2nc3nc(C)cc(C)c3c(N)c2c1 | inconclusive: 11.2 µM [inhibitor, partial curve] |
| N=c1n(CCN2CCCCC2)c2ccccc2n1CC(O)c1ccc(Cl)c(Cl)c1 (configuration not stated) | inconclusive: 12.6 µM [inhibitor, single point] |
| CC(C)(C)N(C(=O)Cn1nnc(-c2ccc(F)cc2)n1)C(C(=O)NC1CCCC1)c1ccncc1 (configuration not stated) | inactive |
| O=C(NCc1ccco1)c1cccc(Nc2nc3ccc(Br)cc3[nH]2)c1 | inconclusive: 35.5 µM [inhibitor, single point] |
| CCOC(=O)CSCc1nc(-c2ccc(Cl)cc2)oc1C | inconclusive: 8.91 µM [inhibitor, partial curve] |
| COc1ccc(C(O)c2nc3ccccc3n2C)cc1OC (configuration not stated) | active: 6.31 µM |
| COc1ccccc1C(=O)ON=C1c2ccccc2-c2ccccc21 | inconclusive: 0.794 µM [inhibitor, single point] |
| COc1cccc(C(=O)CSc2nccn2C)c1 | inconclusive: 35.5 µM [inhibitor, single point] |
| COc1ccc(NC(=O)c2cccc(S(=O)(=O)N3CCOCC3)c2)cc1 | inactive |
| O=C(NNC(=O)c1ccccc1[N+](=O)[O-])c1ccc(NS(=O)(=O)c2cccs2)cc1 | inactive |
| Cc1ccc(C(=O)N2CCc3ccccc32)cc1[N+](=O)[O-] | inactive |
| CC1=CC(C)(C)n2c(O)c(N=NC(N)=S)c3c(C)ccc1c32 | active: 2.51 µM |
| NS(=O)(=O)c1ccc(NC(=O)c2cc(-c3cccs3)nc3ccccc23)cc1 | inconclusive: 35.5 µM [inhibitor, single point] |

| Structure (SMILES) | Potency |
| --- | --- |
| COCCCNC(=O)Cc1c(C)c2c(cc(C)c3c(C(C)(C)C)coc32)oc1=O | inconclusive: 35.5 µM [inhibitor, single point] |
| Cc1c(C(=O)O)c(O)cc2c1C(=O)c1c(O)c([C@H]3O[C@H](CO)[C@@H](O)[C@H](O)[C@H]3O)c(O)c(O)c1C2=O | inconclusive: 11.2 µM [inhibitor, single point] and inconclusive: 14.1 µM [inhibitor, partial curve] |
| O=C(CC1CCCCC1)N=C1SC2CS(=O)(=O)CC2N1c1ccccc1 (configuration not stated) | inactive |
| Cc1nc2ccc(NC(=O)c3cc([N+](=O)[O-])cc([N+](=O)[O-])c3Cl)cc2s1 | active: 3.16 µM |
| Cc1ccc(OCC(=O)NNC(=S)NC(=O)c2ccc(Br)o2)c(C)c1 | inconclusive: 14.1 µM [inhibitor, single point] |
| COc1ccc2cc3cc(C(=O)NCc4cccs4)oc3nc2c1 | inactive |
| Cc1nonc1NC(=O)c1oc2ccccc2c1C | inconclusive: 35.5 µM [inhibitor, single point] |
| C=CCNc1ncnc2c1[nH]c1ccccc12 | inconclusive: 35.5 µM [inhibitor, single point] |
| Cc1ccc(/C=C(\C#N)C(=O)Nc2cccc3ncccc23)o1 | inconclusive: 35.5 µM [inhibitor, single point] |
| COc1ccc(Nc2nc(N3CCCC3)c3ccccc3n2)cc1 | inconclusive: 35.5 µM [inhibitor, single point] |
| CC1CCCN(CC(=O)Nc2cc(Cl)ccc2Oc2ccccc2)C1 (configuration not stated) | inconclusive: 35.5 µM [inhibitor, single point] |
| CC1=C(C(=O)OC2CCCCC2)C(c2cccnc2)n2nnnc2N1 (configuration not stated) | active: 15.8 µM |
| Cc1ccc2nc(-c3ccccc3)c(CN3CCOCC3)n2c1 | inconclusive: 17.8 µM [activator, partial curve] |
| O=C(Nc1ccc2c(c1)OCCO2)C1CCCN(c2ncccn2)C1 (configuration not stated) | inconclusive: 22.4 µM [inhibitor, single point] |
| Cc1ccc(NC(=O)COC(=O)CN2C(=O)NC(C)(C)C2=O)cc1S(=O)(=O)N1CCOCC1 | inactive |
| Cc1cccc(C(=O)NC(=S)N2CCN(c3ccc([N+](=O)[O-])cc3)CC2)c1 | active: 1 µM |
| N#Cc1ccc(CN2CC3(CCN(C(=O)c4cc(C(F)(F)F)cc(C(F)(F)F)c4)CC3)C2)cc1 | inconclusive: 35.5 µM [inhibitor, single point] |
| COc1ccccc1/C=N/NC(=O)c1ccccc1NS(=O)(=O)c1ccc(C)cc1 | inconclusive: 28.2 µM [inhibitor, single point] |
| Cc1cccc(COCC(CC(C)C)N2CCN(C(=O)c3ccc(C(F)(F)F)cc3)CCC2=O)c1 (configuration not stated) | inconclusive: 12.6 µM [inhibitor, single point] |
| COc1cccc(N2CCN(C(=O)/C=C/c3ccco3)CC2)c1 | inactive |
| COc1ccccc1C1CCN(C(=S)Nc2ccc(Br)cc2)CC1 | inconclusive: 28.2 µM [inhibitor, single point] |
| c1ccc(Nc2cc(-c3ccccc3)nc3ncnn23)cc1 | inconclusive: 35.5 µM [inhibitor, single point] |
| COC(=O)c1sc(N)c(C(=O)OC)c1Cn1ncc(Cl)c(Cl)c1=O | active: 12.6 µM |
| COc1ccc(N/C(=N\c2nc(C)cc(C)n2)NC(C)=O)cc1OC | inconclusive: 35.5 µM [activator, single point] |
